Some of the results follow. At the low end of the ranking, values are background and their order means little. Measured with an extract: partners may take part in the binding.

The target of the assay is T1, HNF4alpha8 (COS-7 nuclear extract) (UniProt P41235-5).
T1 sequence: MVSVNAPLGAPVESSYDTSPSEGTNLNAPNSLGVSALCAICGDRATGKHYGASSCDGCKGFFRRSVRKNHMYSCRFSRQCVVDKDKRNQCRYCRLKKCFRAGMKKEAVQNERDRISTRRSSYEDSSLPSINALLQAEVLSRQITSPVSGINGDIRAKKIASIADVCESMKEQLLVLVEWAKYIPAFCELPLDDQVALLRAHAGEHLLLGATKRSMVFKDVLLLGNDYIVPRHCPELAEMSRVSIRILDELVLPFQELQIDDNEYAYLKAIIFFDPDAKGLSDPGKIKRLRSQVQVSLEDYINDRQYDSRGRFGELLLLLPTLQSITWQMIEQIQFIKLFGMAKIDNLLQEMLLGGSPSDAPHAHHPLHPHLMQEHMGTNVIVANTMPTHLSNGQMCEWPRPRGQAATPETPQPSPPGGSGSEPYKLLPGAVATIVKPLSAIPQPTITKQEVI
The assay is described as follows: protein-binding microarray. The note with it: COS-7 nuclear extract on double-stranded Agilent 4x180k PBM; binding buffer, salt, pH and temperature not given; high values mean tight binding; double strand, one strand shown; sequences stand for … in …GCCTAGGGAGATTAGAGTATCGGTCGA
As to ACTTGGGTTTATGGCTTATGCATGTTTATG, the binding signal (log2 normalized intensity) came to 2.08.

Consider AGATAGGTTAAAATTTATCTATTGGGTACA, for which the binding signal (log2 normalized intensity) turned out to be 2.

For CTGTCTTCATCCTGAGAGGGCTCAAGGTCT, the binding signal (log2 normalized intensity) was 2.15.

Consider CCCCAAATTCCTTTCAAACTGTATTGCTCA, for which the binding signal (log2 normalized intensity) amounted to 1.24.

Turning to TTGTCTTTTCGGAAGAACTGGTTCTGTGGA, the binding signal (log2 normalized intensity) amounted to 1.39.

In the case of GTCCATCACCTGGCTCTGAAAAACAAAATG, the binding signal (log2 normalized intensity) is -0.567.

In the case of GTCTTTGCCCCTGGACTTTGAATTTCCCCA, the binding signal (log2 normalized intensity) came to 5.11.

Consider AACTAGGGTTCCAAGACCAAGCAAGCCAGT, for which the binding signal (log2 normalized intensity) is -1.39.

Consider TTACCATATTTACTTATGGTTTGACCCTGC, for which the binding signal (log2 normalized intensity) is 5.23.

Turning to AGATGTTATTACTTAATGCTTTGAATCCTT, the binding signal (log2 normalized intensity) came out at 1.16.

On to GACCTCATTTGCTCCCAGTGCACACAGACT, for which the binding signal (log2 normalized intensity) was 0.0643.

In the case of GGAAAGCTGCAGGCATGAGAGGTGCTGCAT, the binding signal (log2 normalized intensity) is -1.17.

In the case of CCTCCTCTGAAGGAACTTCTGGTTCTTTCT, the binding signal (log2 normalized intensity) was -0.196.

On to TCAATGGTTGCACTCTGGTGCCCTCTGAGT, for which the binding signal (log2 normalized intensity) stood at 2.85.

For the sequence GAGCCAGAGGGGCCAGGAACGTCACACTGA, the binding signal (log2 normalized intensity) is -1.34.

As for GGCTCTCCCGGGGCGGGGGTGACCAGATTA, the binding signal (log2 normalized intensity) amounted to 1.07.

In the case of CCTAAAATTGACCTTTGATCACTCATGGGC, the binding signal (log2 normalized intensity) was 8.68.

Take GAGGGCGAGAAGTAGGTGCAAGGGAATGTA: the binding signal (log2 normalized intensity) was -1.17.

On to TATCAGAAGAACTGCACTGTATCTTATCAG, for which the binding signal (log2 normalized intensity) is -0.403.

TACACAGTGCCTGCTTGCAGATAAAACATT: the binding signal (log2 normalized intensity) was -1.24.

With TCTGACCTCTTTCAAGCCTGAACAAACATG, the binding signal (log2 normalized intensity) is 1.36.

As to GGGCAGAGAGGCTGCCATCCCACATTCCAC, the binding signal (log2 normalized intensity) was -1.18.

TATGAGCTATGATTGCGCCACTGCATTCCA: the binding signal (log2 normalized intensity) is -1.33.

For the sequence ATAAAGGGTGTGAGAGAGAAGGCAAGATTT, the binding signal (log2 normalized intensity) is -1.31.

For GTTGGCAAACAAAAAGCTCTGCCTACGCAT, the binding signal (log2 normalized intensity) was -1.38.

In the case of CCTTCCGGAGGCTCTGCTGAAGAGAAGCCA, the binding signal (log2 normalized intensity) was -1.35.

CTTACAGGACAAAAGTAAATATGGTTTACC: the binding signal (log2 normalized intensity) was -0.746.

In the case of GGACAGCTGGCCTCATGCCTTATCTACATA, the binding signal (log2 normalized intensity) is -1.29.

As for AATCTTCCTTCTTACAGCTGGCTCACTATT, the binding signal (log2 normalized intensity) was 0.936.

For ATTACCAATGAGAAACCTCAAAGGTTAGGG, the binding signal (log2 normalized intensity) stood at 0.852.

With ATAAGCGAAGATAACCTACTTAAAAAGAAA, the binding signal (log2 normalized intensity) was -1.15.

As to TCCAGAAGAAAGGGGAGATAATGCCAGAAA, the binding signal (log2 normalized intensity) was -1.13.

In the case of TCAGACTGAGAGAGCAGGGCCCGAGGCCTT, the binding signal (log2 normalized intensity) is -1.43.

CAGGGATAGCGCCCACACTGCCCATCCCCA: the binding signal (log2 normalized intensity) worked out at 2.37.

For CCGCCACCCCCCAGAGGGCCATCTAGCTTA, the binding signal (log2 normalized intensity) is 3.09.

Consider GTCAGTGAACTGTGGTTGACAGGCAACAAT, for which the binding signal (log2 normalized intensity) was -0.232.

Turning to CGAATGGTCGCGCCGGGCGCCGCTCTGAGT, the binding signal (log2 normalized intensity) was -1.35.

As to TCATGGCTTAAAACGACTGATTCTCAGGCA, the binding signal (log2 normalized intensity) is -1.24.

As to GAGGATGAGGACTTTGGTCTTATTACTAAG, the binding signal (log2 normalized intensity) was 3.37.

Take GCTGGAGGTGTTAAAGTGCCATTGAGATGG: the binding signal (log2 normalized intensity) was determined as 0.448.

Turning to TGCAGTACTTTTCAGGAACTGTTCTTTGAC, the binding signal (log2 normalized intensity) is 1.51.

Take AGCTCAGTGGAAATTGTCCTGCGGTTGGCT: the binding signal (log2 normalized intensity) was -0.992.

Take TATCTCTCCCCCACCACTGCTTCCTGCCCC: the binding signal (log2 normalized intensity) came out at 5.48.

Consider GCCAGAAAAGCAAACCGAGATCAAGGGACA, for which the binding signal (log2 normalized intensity) is -1.33.

ACAAAACATTTGGTGTAAGCACTTGTGGTA: the binding signal (log2 normalized intensity) is -0.287.

Take ATCAAACCTGTTATTTGCGCCTCCCTAGAG: the binding signal (log2 normalized intensity) was -1.32.

For CTCTGGGAGGGAGGAGCACAGAAGGAGAGA, the binding signal (log2 normalized intensity) is -1.48.

Regarding AAGCAGAGGGCGAGAAGTAGGTGCAAGGGA, the binding signal (log2 normalized intensity) was -1.33.

For the sequence TCTTACAACATAGTGATTTAGGCTTTTGGG, the binding signal (log2 normalized intensity) was -0.388.

As for GCAGTAGTGCGATGATCATGGCTCACTGCA, the binding signal (log2 normalized intensity) is -1.25.

With GACTCCAGTGATCTTATCGCCTAGTACTCC, the binding signal (log2 normalized intensity) was determined as 0.579.

With AGAGATTTTCACATGGAATGTCGTGCCCTA, the binding signal (log2 normalized intensity) worked out at 1.62.

Take AGGTTTCAGAGGCTCACAGAGAGGCTTCTG: the binding signal (log2 normalized intensity) was -0.963.

Regarding CTCCCGCAGCATACACTTTCCGTACTTTTC, the binding signal (log2 normalized intensity) was determined as 1.03.

In the case of CTTGTTGGTAACCGGAGCAAAGGTTACTCT, the binding signal (log2 normalized intensity) stood at 4.95.

For GCCCTGCCACCCCCGTTAATTTCTAACCAA, the binding signal (log2 normalized intensity) is 2.57.

Take ATCTCTGATGCCCTTTGGCCTTTCTAATTA: the binding signal (log2 normalized intensity) came out at 6.21.

With TCCCCTTTCTGTTGGAAGCTGATAAGCCAA, the binding signal (log2 normalized intensity) worked out at 0.289.

As for CATTGCATGTGCATTTCACAATAGGGTTCA, the binding signal (log2 normalized intensity) was found to be 2.77.

Regarding CTCTCCCTCCAGGCCCCAGCCACGCCCTCT, the binding signal (log2 normalized intensity) came to 3.48.

Take CCCAGGTCCAGCCTTTGGGCAGGGGCATCC: the binding signal (log2 normalized intensity) turned out to be 1.01.

AAGGAGATTCCTGTGTCAGCAGAAGGCCCC: the binding signal (log2 normalized intensity) came to 1.44.

Turning to CAGTGGTAACCACAGTACTGTCTTTTTGCC, the binding signal (log2 normalized intensity) came out at 0.214.

Take AAGCACATACTTCTTCCTGTTTGACCTTCG: the binding signal (log2 normalized intensity) stood at 5.61.

Regarding GAGTTCTTCAAGTCAGTCAAAATGAATAGT, the binding signal (log2 normalized intensity) was 0.159.

As to GTACTATGACCCAAACTTCACAAAAATGAG, the binding signal (log2 normalized intensity) stood at 1.74.

With TTCCCAAGAAGAGCCCAGACAAGCATTCTG, the binding signal (log2 normalized intensity) is -1.12.

As for TGAGACCTGTGATGGTCACTATCTGGGCCA, the binding signal (log2 normalized intensity) was determined as 0.312.

As to GTCAAGTAGAGACCTGTCTTCCTGGTGACC, the binding signal (log2 normalized intensity) stood at 2.25.

CCTATCTGGTGCAGTCCAAGAGGCCCAGGT: the binding signal (log2 normalized intensity) was -1.37.

As for TGTGTGTGTGTGTGTGTCTGTGTGTGTGTG, the binding signal (log2 normalized intensity) turned out to be 3.31.

On to CAAACAAATGCCATAGTCCAAAGTGGCAGT, for which the binding signal (log2 normalized intensity) stood at 1.79.

The values above are taken from publication PMC10726135.
